About 65 (0.1%) of roughly 45,000 compounds were called active. The call rests on the fitted dose curve; in most records, active means well fitted activation curve with a large enough effect; inconclusive means small, poorly fitted or top-dose-only effect; inactive means no such curve, though single readings can be large or run the other way. The list shows a part of the results.
These compounds were tested against Galactocerebrosidase (Homo sapiens) (UniProt P54803) (assay: A Novel Cell-Based Assay to Identify Small Molecules for B -Galactocerebrosidase). Details: 145M-Twi-hGALC-G270D cells, HMU-beta-Gal fluorescence, 48 h; series mostly up to 57.5 µM; activation: at the top concentration.
Procedure, shortened: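 qHTS, 1536-well; 145M-Twi-hGALC-G270D cells (WT line also made) in DMEM/F12 + 10% FBS; compound incubation on live cells; HMU-β-gal 0.1 mM final, pH 5.2, NaTC; carbonate stop; fluorescence increase = enhanced residual activity.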
Further: 0% is about no effect; nearly all actives have a fitted effect of over 65% in size.

Chain of UniProt P54803 (P54803 whole entry, looked up): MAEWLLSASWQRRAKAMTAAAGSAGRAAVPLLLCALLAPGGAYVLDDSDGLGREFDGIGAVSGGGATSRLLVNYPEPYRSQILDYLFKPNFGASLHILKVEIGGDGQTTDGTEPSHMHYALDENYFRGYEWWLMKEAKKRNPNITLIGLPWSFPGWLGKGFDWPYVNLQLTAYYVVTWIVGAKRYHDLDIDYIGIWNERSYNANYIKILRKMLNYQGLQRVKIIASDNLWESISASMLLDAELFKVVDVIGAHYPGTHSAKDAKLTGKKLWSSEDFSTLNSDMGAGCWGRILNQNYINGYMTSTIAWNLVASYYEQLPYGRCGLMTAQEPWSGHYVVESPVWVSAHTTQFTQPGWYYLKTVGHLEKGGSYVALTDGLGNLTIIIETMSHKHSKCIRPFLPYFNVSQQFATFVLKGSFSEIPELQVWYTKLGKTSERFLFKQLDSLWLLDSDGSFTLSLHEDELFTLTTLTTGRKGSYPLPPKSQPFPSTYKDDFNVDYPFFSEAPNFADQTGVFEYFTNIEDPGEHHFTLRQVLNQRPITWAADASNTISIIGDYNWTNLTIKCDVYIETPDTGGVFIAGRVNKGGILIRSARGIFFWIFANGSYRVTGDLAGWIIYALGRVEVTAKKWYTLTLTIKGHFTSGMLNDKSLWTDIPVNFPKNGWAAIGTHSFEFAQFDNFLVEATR

activation, inactive:
Cc1ccc(N(Cc2cccs2)C(=O)c2ccccc2)cc1 -3.15%, O=C(NCCOCCO)C(=O)Nc1c2c(nn1-c1ccc(F)cc1)CSC2 -11.4%, CCC(=O)N1CCc2cc(S(=O)(=O)CCC(=O)N3CCN(c4ccccc4Cl)CC3)ccc21 -1.14%, CN(c1ncnc2c1c(-c1ccccc1)cn2-c1ccc(F)cc1)C1CCCCC1 -7.43%, Cc1ccc2cc3cc(C(=O)N4CCN(c5cccc(C(F)(F)F)c5)CC4)sc3nc2c1 -4.25%, O=C(O)c1ccc(Nc2nc(-c3ccccc3)c3cc(Br)ccc3n2)cc1 -24.5%, Cn1c(SCC(N)=O)nc2c([nH]c3ccccc32)c1=O 4.99%, COc1ccc(-c2nc3ccc(NS(C)(=O)=O)cc3o2)cc1 -8.32%, Clc1ccccc1Cn1cccc1C1=NC(Cc2ccccc2)CO1 (stereo not drawn) -9.29%, CCOc1ccc(-c2nc(CNC(=O)NC3CCCCC3)c(C)o2)cc1 4.77%, CCN(CC)CCNc1ncnc2c1cnn2-c1cc(Cl)ccc1C -21.5%, CCNc1nc(N)nc(Oc2ccc(OCC(=O)OC)nn2)n1 -19.1%, Cc1ccc(C(=O)Nc2nc3nc(C)cc(=O)n3[nH]2)cc1 -15.1%, COc1ccc(CCNS(=O)(=O)c2cc(-c3cc(C)no3)ccc2OC)cc1OC -20.9%, O=C(CCc1ccccc1)N(Cc1cccnc1)c1nc2c(F)cc(F)cc2s1 -14.3%, CCOc1ccc(OCc2ccc(C(=O)Nc3cc(OC)c(OC)c(OC)c3)o2)cc1 -9.19%, CC(C)c1ccc(-c2noc(SCC(=O)N3CCN(c4ccc(F)cc4)CC3)n2)cc1 -19%, Cc1ccc(C)c(Nc2nn3c(=O)c4ccc(C(=O)NCCC5=CCCCC5)cc4nc3s2)c1 -13.3%, Cc1ccc(N2CC(C(=O)NCCS(=O)(=O)N3CCN(c4ccccc4)CC3)CC2=O)cc1C (stereo not drawn) -2.94%, CCc1nnc(NS(=O)(=O)c2ccc(N)cc2)s1 -19.9%, O=C(NCCc1csc(-c2ccc(Cl)cc2)n1)c1ccco1 -5.09%, Cc1cccc2nc(-c3ccc(N(C)C)cc3)c(Nc3ccc4c(c3)OCO4)n12 -11.4%, COc1ccc(CCNc2nc3ccc(Cl)cc3n3cnnc23)cc1OC -0.0867%, CCCN(C(=O)C(=O)Nc1ccc2nc3n(c(=O)c2c1)CCCCC3)c1ccc(OCC)cc1 -10.9%, COc1cccc(CNC(=O)CSc2nc(=O)[nH]c3c2CCC3)c1 -5.2%, CCOc1ccccc1C(=O)Nc1cccc2ccc(C)nc12 -8.59%, COc1cc(C2CC(=O)c3c([nH]c(C(=O)OCc4ccc(C)cc4)c3C)C2)cc(OC)c1OC (stereo not drawn) -13.4%, COc1cc(NC(=O)c2cc(Cl)ccc2Cl)ccc1NC(=O)c1cc2ccccc2o1 -14.7%, COc1ccccc1-c1nnc(C2CCN(C(=O)c3cccc(Cl)c3)CC2)o1 -13.7%, CCOC(=O)c1ccccc1NC(=O)Cn1c(=O)n(CCC(=O)N2CCc3ccccc3C2)c(=O)c2ccccc21 -12.2%, Cc1cccc(C(c2sc3nc(-c4ccco4)nn3c2O)N2CCN(Cc3ccccc3)CC2)c1 (stereo not drawn) 18.9%, Cc1ccc(NC(=O)/C=C/c2ccc(Cl)cc2)c(Br)c1 -4.2%, CCS(=O)(=O)N1CCc2cc(C(=O)NCc3ccc(Cl)cc3)ccc21 -19.2%, COCCCNC(=O)c1[nH]c2ccccc2c1Sc1ccc(C)cc1 -8.55%, CN(C)c1ccc(CNC(=O)c2cnc3sc(N4CCCC4)nn3c2=O)cc1 -3.82%, Cc1ccccc1NC(=O)Cn1c(=O)n(CCCCCC(=O)NCc2ccccc2Cl)c(=O)c2sccc21 -2.41%, COc1ccc(NC(=O)c2ccc3c(SCC(=O)O)c4c(nc3c2)CCCC4)cc1OC 4.09%, CCCOc1ccc(C(=O)Nc2ccc3oc(-c4ccc5ccccc5c4)nc3c2)cc1 -18.3%, CC(=O)c1cccc(NC(=O)CSc2nnc3ccc(-c4ccc(F)cc4)nn23)c1 -6.07%, O=C(Cc1ccccc1)N(Cc1cccnc1)c1nc2ccc(Cl)cc2s1 -13.4%, Cn1c(=O)c2c(nc(Oc3ccc(C#N)cc3)n2Cc2ccc(Cl)cc2Cl)n(C)c1=O -1.55%, CCOC(=O)c1ccccc1NC(=O)Cn1c(=O)n(CCC(=O)NCc2ccccc2OC)c(=O)c2ccccc21 -10.1%, CCOC(=O)c1c(C)oc2ncnc(N3CCN(c4ccc(C)cc4C)CC3)c12 -9.65%, O=C(NCCc1ccccc1)c1cc(-c2ccc(Br)cc2)on1 -13.4%, O=C(Nc1ccc(Br)cc1F)c1cc(S(=O)(=O)NC2CCCC2)ccc1F -42.2%, CCOC(=O)c1cccc(-n2nnc3c(sc4nc(C)c(Br)c(C)c43)c2=O)c1 -14.5%, Cc1sc2ncn(CC(=O)Nc3ccc(F)cc3Cl)c(=O)c2c1S(=O)(=O)N1CCN(c2ncccn2)CC1 -10.5%, CCN1CCN(c2csc3ccc(F)cc3c2=O)CC1 -15%, CCCCN(Cc1cccs1)S(=O)(=O)c1cc(-c2cc(C)no2)ccc1C -1.72%, COc1cccc(-c2nnc3n(Cc4ccc(C)cc4)c(=O)c4ccccc4n23)c1O -15.9%, CCOC(=O)c1c(S(=O)(=O)NCC(=O)N2CCN(c3cccc(Cl)c3)CC2)c(C)n(C)c1C 9.68%, COc1cccc(CNC(=O)c2[nH]c3cc(C)ccc3c2Sc2ccccc2)c1 -8.3%, COc1ccc(-c2nc3scc(CCNS(=O)(=O)c4c(C)noc4C)n3n2)cc1OC -12.4%, Cc1cccn2c(=O)cc(CSc3nnc(NC(=O)COc4ccc(F)cc4)s3)nc12 -7.37%, COc1ccc(NC(=O)c2sc3nc(C)c(C(=O)Nc4ccc(C)cc4C)c(-c4sccc4C)c3c2N)cc1 -12.7%, CCc1c(CN2CCN(c3ccc(F)cc3)CC2)csc1C -6.66%, COc1ccccc1-c1cc(C(F)(F)F)nc(S(=O)(=O)CCCC(=O)Nc2ccccc2F)n1 -12.7%, CC1CCc2c(N3CCC(O)CC3)c(F)cc3c(=O)c(C(=O)O)cn1c23 (stereo not drawn) -14.4%, COc1ccc(Nc2ncnc3scc(-c4ccc(F)cc4)c23)cc1 -16.6%, COc1ccc(Cn2c(SCc3ccc(C(=O)NC4CCCCC4)cc3)nc3cccnc32)cc1 -14.8%, CC(=O)Nc1ccc2nc(SCCOc3ccc(C)cc3)sc2c1 -16.5%, Cc1ccc(CN2CCC(CNC(=O)Nc3ccccc3F)CC2)cc1 -12.7%, COc1ccc(C)cc1Nc1nc2c(S(=O)(=O)c3cc(C)ccc3C)nnn2c2ccsc12 -13.4%, COc1cc2c(cc1NC(=O)COc1cc(C)cc(C)c1)oc1ccccc12 -9.04%, O=C(COc1ccc(Cl)cc1)NCCc1csc(-c2ccc(C(F)(F)F)cc2)n1 -13.3%, COCCNc1nc2c(S(=O)(=O)c3ccccc3)nnn2c2ccc(Cl)cc12 -4.33%, COc1ccc(Cn2c(CCC(=O)Nc3ccc(Br)c(C)c3)nc3cccnc32)cc1 -14.8%, CCCCCn1c(=O)[nH]c2cc(C(=O)N3CCN(c4ccc(OC)cc4)CC3)ccc2c1=O -7.51%, CN(C)c1ccc(C(=O)Nc2sc(Nc3ccccc3)nc2C(N)=O)cc1 -29.7%, Cc1ccc(NC(=O)CN(C)S(=O)(=O)c2cccc3cccnc23)c(C)c1 -9.8%, Cc1cc(C)cc(NS(=O)(=O)c2cc3[nH]c(=O)c(=O)[nH]c3cc2C)c1 6.75%, O=C(Cn1nnc(-c2ccc(C(F)(F)F)cc2)n1)NCCc1ccccc1 -17.9%, CCc1ccc(CN(Cc2ccco2)c2cnc(S(C)(=O)=O)nc2C(=O)Nc2ccc(C)c(Cl)c2)cc1 2.39%, COc1cc(OC)c(C(=O)NCc2nc(-c3ccccc3)no2)cc1OC -12.7%, O=C(Nc1cc(Cl)cc(Cl)c1)c1ccc(F)c(S(=O)(=O)N2CCCC2)c1 -20.4%, CCCC(=O)Oc1c(Sc2ccc(C)cc2)c(C)nn1-c1ccccc1 -22.3%, CCOC(=O)C1CCC(CN(Cc2ccc(OC)cc2)S(=O)(=O)c2ccc(C)cc2)CC1 (stereo not drawn) -9.69%, COc1ccc(CCNC(=O)C(=O)NCC(c2ccco2)S(=O)(=O)c2cccs2)cc1 (stereo not drawn) -25%, CCC(Sc1nc2cc3c(cc2c(=O)n1CCCCCC(=O)NCc1ccc2c(c1)OCO2)OCO3)C(=O)NCCCOC (stereo not drawn) -6.59%, Cc1nn2c(=O)cc(COC(=O)c3ccc(NC(=O)CCc4ccccc4)cc3)nc2s1 -11.3%, CCc1noc(-c2ccc(N3CCC(C)CC3)c([N+](=O)[O-])c2)n1 -32.7%, Cc1cccc(OCCn2c(SCC(N)=O)nc3ccccc32)c1 -22.3%, O=C(Nc1cccc(Br)c1)Nc1nc2c(s1)CCCCCC2 -7.79%, COc1cc2c(C(=O)N3CCN(c4cccc(Cl)c4)CC3)cn(C)c(=O)c2cc1OC 4.75%, O=C(CN1C(=O)c2cccnc2Oc2ccc(Cl)cc21)NCCCN1CCCCC1 6.36%, CC(C)C(=O)Nc1ccccc1C(=O)OCc1cc(=O)n2nc(C3CC3)sc2n1 3.19%, COc1cccc(CCNC(=O)c2ccc(Cn3c(SCc4ccccc4)nc4cccnc43)cc2)c1 -38.6%, CCOc1ccc(NC(=O)NC(C)c2c(-n3cccc3)sc3c2CCN(CC)C3)cc1 (stereo not drawn) -16.7%, O=C(Nc1ccc2nc(SCCOc3ccccc3)sc2c1)c1ccco1 -11.4%, Cc1cccn2c(=O)c3cc(C(=O)NC(C)C)n(C)c3nc12 -6.59%, Cc1cccc(-c2nc3cc(NC(=O)c4ccc(OCC(C)C)cc4)ccc3o2)c1 -14%, COc1ccc(NC(=O)c2cnc(N3CCOCC3)c3ccccc23)cc1OC -15.9%, Cc1ccn2c(c1)nc(=O)c1cc(S(=O)(=O)N3CCCCC3)ccc12 -8.31%, Cc1ccccc1NC(=O)C1CCN(C(=O)c2ccc(F)cc2)CC1 -18.6%, COc1ccc(-c2nc3ccccc3n2Cc2ccc(C(C)C)cc2)cc1 -11.3%, CCOc1ccc(NC(=O)Cn2cc(C(=O)c3ccc(F)cc3)c(=O)c3cc4c(cc32)OCO4)cc1 -5.13%, Cc1ccc(-n2ncc(C(=O)NCCc3ccsc3)c2C2CCN(C(=O)OC(C)(C)C)CC2)c(C)c1 -5.94%, Cc1cccc(N2CCN(c3ncnc4onc(C)c34)CC2)c1C -23.7%

Source: PubChem BioAssay AID1159614 (National Center for Advancing Translational Sciences (NCATS), 2016)
